± gives the standard deviation of the averaged measurements. Some of the results follow.
Each sequence was assayed on PfAP2-I AP2 domain 3 (GST-tagged) (assay: gcPBM binding intensity (ln(normalized median fluorescence intensity)); higher = stronger DNA binding).
Procedure, shortened: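 After 1 h on an Agilent 4 × 180k array of primer-extended double-stranded 36-bp intergenic genomic probes and negative controls, bound GST-tagged P. falciparum DNA-binding domains were detected with Alexa488 anti-GST antibody and scanned at 488 nm. The domains had been expressed in E. coli, and binding took place in 1× PBS with 1% milk, 0.2 mg/ml BSA, 0.5% salmon testes DNA and 0.03% Triton X-100. Binding intensity is the highest Masliner-normalised natural-log median intensity across replicate spots of either probe orientation.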

Row | Sequence | gcPBM binding intensity (ln)
1 | TATTTTAAAACAAAAATATAATTTCATAAAAATATA [CACACA_negctrl_site394] | 7.2 ± 0.47
2 | ATAAAATAATCTTATGCACACCAAAAATTTATATAA [CACACA_site8332] | 9.21 ± 0.13
3 | ATATATCAAAAATGATGACATAAATATATTAATTTA [TGCATGCA_negctrl_site259] | 7.22 ± 0.46
4 | TATCTGTATGTATGTACACACAAAAAATGGAATATA [CACACA_site5947] | 7.84 ± 0.38
5 | TTTTTGTAAAATAAACGTACAAAACAATTGTTCATT [XGTACX_site6537] | 7.82 ± 0.4
6 | TTATATACATAAAAATGTACTTTTTATAAAATATAT [XGTACX_site8281] | 7.67 ± 0.32
7 | AAGTTAGTATTCTGCTGTACTTCTATATATAAGTGT [XGTACX_site7678] | 7.72 ± 0.59
8 | GAATGAATCAATGTTTGTACTCAACAAATTATAAGG [XGTACX_site5122] | 7.92 ± 0.38
9 | GCCTTCCTTCTAAATGCACACGGAAAGTATAAATGT [CACACA_site8797] | 9.83 ± 0.18
10 | TATATATAATACAGTATGCACTATTTTTATTAAAAA | 9.19 ± 0.13
11 | CAATAATTTTTTAAATGTACTTTATTATAATTTAAT [XGTACX_site135] | 7.54 ± 0.38
12 | ACAACATTTCTCAAATGTACATAATATAATTTATAT [XGTACX_site3224] | 7.61 ± 0.58
13 | TATTAATTCTTAAATTTTTTTTTTTAATTCCTAGGA [CACACA_negctrl_site879] | 7.12 ± 0.39
14 | TTTTCTTACATCTTATAAAAAAAAATATATATTATA [GTGCAC_negctrl_site118] | 7.55 ± 0.37
15 | GTCTAACAACCAAACGCACACACACTAATAAAAAAA [CACACA_site8026] | 8.88 ± 0.11
16 | CAATCATGGGTTTACACACACATGCATGTGAAAATT [CACACA_site1349] | 7.74 ± 0.65
17 | AAAAAAAAAAAAAAAAAAAAAAAAATATATAATTTA [CACACA_negctrl_site583] | 9.695 ± 0.007
18 | AACCAAACAAATAAACGTACAAACATTACATATATT [XGTACX_site2265] | 7.8 ± 0.39
19 | GATGATAATAAATTTATATATAATATTATCTTATGT [GTGCAC_negctrl_site672] | 7.48 ± 0.51
20 | CATATTAAAAATTATTGTACATATTAATGAATATAA [XGTACX_site2734] | 7.66 ± 0.085
21 | ATTTTTGCAGTAATTAAATAGACAAAATGAAAAAAA [CACACA_negctrl_site1537] | 8.36 ± 0.38
22 | AAAATAATATTTAATACACACATAATTTTAATATAA [CACACA_site4588] | 7.58 ± 0.5

Row | Sequence | gcPBM binding intensity (ln)
23 | TACTTATATTATTTTATTATTAAATTTAAAACGAAA [CACACA_negctrl_site736] | 7.67 ± 0.46
24 | ACAATAAAGAAGTGTACACATATATCAATAAAAAAA [CACACA_site5228] | 8.22 ± 0.33
25 | ATATACACACAAAAACGTACACATATATATATGTAT [XGTACX_site2673] | 8.17 ± 0.085
26 | GGTATAATAATATATAGTACACACAAAAATGGAAGT [XGTACX_site7058] | 8.46 ± 0.61
27 | AAAAAAAAAAAAAGCACACATATAAATATGAATAAA [CACACA_site1393] | 8.39 ± 0.085
28 | AAAAAAAAAAAAAACACACACATACACCCAAAAATG [CACACA_site4223] | 8.4 ± 0.6
29 | TTTTTATAAATACACATAAATATATATATATATATA [TGCATGCA_negctrl_site393] | 9.18 ± 0.2
30 | ACACAAAAAAATATATATATATATATATATATGTTA [CACACA_negctrl_site55] | 8.14 ± 0.29
31 | ATGCATTATTAGAATACACACCATACGCATATTTAT [CACACA_site4319] | 8.41 ± 0.33
32 | AAAAAAAAAAAAAAATGTACATTTTGAAAGGATATA [XGTACX_site8217] | 8.38 ± 0.54
33 | TAAAGAAAAAGAGAATGTACATGAGAAAAGTATACT [XGTACX_site7472] | 8.18 ± 0.89
34 | AAAAAAGATAATTATGCACACACACCCACCCACCCA [CACACA_site8825] | 9.99 ± 0.18
35 | AGAAAAAAAAAAAAATGTACAGACTTTTTCTTATAA [XGTACX_site6481] | 7.6 ± 0.51
36 | AATCACAACAGACACACACACAAAAAAAAAAAAAAA [CACACA_site1442] | 8.08 ± 0.67
37 | TTAATATAATAGAAGTGTACACACATATTTATGTGT [XGTACX_site6672] | 8.12 ± 0.2
38 | ATATGTTATATAAATATATATATATATATATATATA [TGCATGCA_negctrl_site594] | 9.23 ± 0.59
39 | TAATAATAAAAATAAACACACATATATCTGTATTTA [CACACA_site5572] | 7.26 ± 0.41
40 | TATTTATAAACATACGCACACATTAAAATATATATA [CACACA_site6051] | 8.16 ± 0.32
41 | ATATATATATATATAGTGCATAAAATAAGTTTCTAA | 10.8 ± 0.21
42 | GGTGGAAACAATTACACACACACAAAAAAAAAAAAA [CACACA_site3208] | 8.11 ± 0.44
43 | TATACAATATATTTTGGTACACAAACAAAAAAATAT [XGTACX_site2522] | 8.13 ± 0.64
44 | ATTAAAAGAACCAAGTGTACATTCTATATATAAAAA [XGTACX_site4260] | 7.82 ± 0.59

Row | Sequence | gcPBM binding intensity (ln)
45 | ATATTATGATCTATTTTTATATTCTATTTGATAAAT [CACACA_negctrl_site1070] | 7.54 ± 0.65
46 | GTTCACCAAAGGTAACGTACACAAACATATATATAT [XGTACX_site1073] | 9.09 ± 0.11
47 | GAAAAAGACAAAAGGTGTACAATATGAAATATATAT [XGTACX_site373] | 8.2 ± 0.5
48 | TAATTCTAAATAAATGTACACACAAAAATAAATGTA [CACACA_site8509] | 7.78 ± 0.45
49 | TTGATAAAATGGGAGAAATTAAAAAGGAAAAAAAAA [CACACA_negctrl_site1279] | 7.57 ± 0.76
50 | CTATTTTATATGTGCACACATATACACCCACAAATA [CACACA_site1131] | 10.5 ± 0.22
51 | TTATAAAATTTTCTTCTATATTTTAATTATTCTCAT [TGCATGCA_negctrl_site571] | 7.32 ± 0.81
52 | TATATATATATTATATGTACATAAATATTTATACTC [XGTACX_site114] | 8.83 ± 0.3
53 | TCTCATAGGAAACACACACACACACCCACATATATA [CACACA_site1738] | 8.11 ± 0.24
54 | TAAATAAAAAAAAAAAGTACATACATACAAACATAT [XGTACX_site4427] | 7.79 ± 0.47
55 | ATATATGTGCGCGTATGTACATAAAATAAATATACA [XGTACX_site2689] | 8.57 ± 0.64
56 | ATATATTTTTTAAATTTAAAAATTATAAAATTTATA [TGCATGCA_negctrl_site36] | 7.62 ± 0.25
57 | TGGGTCTCTAACTGGTGTACTATTTACATATTATAC [XGTACX_site8593] | 8.26 ± 0.45
58 | TATGATTTTAACAACTGTACAATATAATAAATCTAA [XGTACX_site2198] | 7.62 ± 0.23
59 | TAAAAGAAAAATTAGTGTACCAATATTAACATAAAA [XGTACX_site5474] | 7.63 ± 0.49
60 | ATATATTTTTAATTACGTACTTAATAATATATACAA [XGTACX_site3285] | 7.92 ± 0.26
61 | ATATCAACTGAATTGTATAGGCGATAAAAGAAAAAA [CACACA_negctrl_site1334] | 7.62 ± 0.86
62 | ATATAAATATATGTATGTACACATTTTTTTTTTTTT [XGTACX_site247] | 7.825 ± 0.021
63 | AGAATTATAAATTATAGTACATAAAATTTTGATGTA [XGTACX_site5726] | 7.52 ± 0.4
64 | TTTATACATACATTCGTGCACATACGTATAACATAT | 11.2 ± 0.19
65 | AAACGATCTCGATGTTGTACACATTTATATAGAAAC [XGTACX_site4373] | 8.34 ± 0.22
66 | CATGTGTGTATAATTTGTACATATACATAATAAATA [XGTACX_site2418] | 7.93 ± 0.33

Row | Sequence | gcPBM binding intensity (ln)
67 | CTAAACTAAACAAACTGTACACAAATAAAACAATAA [XGTACX_site8880] | 7.99 ± 0.37
68 | TACTAAAATATATATATGCAACATGAGATATTCAAC [XGTACX_negctrl_site283] | 8.13 ± 0.51
69 | GTTGTCCCCCTTTCTATGCACACTTTAAATTATTCA [CACACA_site52] | 9.98 ± 0.23
70 | AATTTATAAGAATATTGTACGTTTAATATATTGTAA [XGTACX_site7553] | 7.7 ± 0.47
71 | ATTCTAATAGATAGTAGTACCTATAAGTTTTCTTTT [XGTACX_site2315] | 7.59 ± 0.46
72 | AAGTTTATTATATATAAATTATTATATATATATATA [CACACA_negctrl_site189] | 9.31 ± 0.57
73 | AAAATAATAATTAAATAATAGTAAATGAAAAATAAA [CACACA_negctrl_site57] | 8.19 ± 0.29
74 | TATGTGTTCAGTATTGCACACACACTCCAAAATAAA [CACACA_site8018] | 9.86 ± 0.59
75 | ACTTCATTTTATAAGTGTACATAATTTGTTTATATA [XGTACX_site5453] | 7.96 ± 0.49
76 | ATAAATACTAGGCACACACACATATAGATTTATATA [CACACA_site7064] | 8.24 ± 0.59
77 | TATTATTTACTTATTGCACACATATAAAATATATTT [CACACA_site9017] | 10.6 ± 0.49
78 | TCACACACTCTCAAAAGTACAAGAAGATTATGAAGA [XGTACX_site4748] | 7.83 ± 0.64
79 | ATCTATCATATTTATGCACACAAAAATAATTAATTC [CACACA_site8837] | 9.775 ± 0.035
80 | ATGAACTAAACTAATCGTACAATAAGTTTTATTATA [XGTACX_site4891] | 7.5 ± 0.53
81 | AAAAAAATATATAAATGTACATATTGTTTAATTAAT [XGTACX_site3794] | 7.82 ± 0.43
82 | TTCAACGTTTTGGAATGTACAGAAAGGTATCCATCA [XGTACX_site179] | 7.75 ± 0.57
83 | GAAATATAATTTATTACACACATTTTAAAAAAATTC [CACACA_site1087] | 7.74 ± 0.18
84 | AAAAAAAAAAAAAAAAAAAAAAAAAAAAAATATGTG [GTGCAC_negctrl_site657] | 9.9 ± 0.26
85 | TAAAAGATAAAATATGCATGTGTAATTTTTTTTTTT [TGCATGCA_site955] | 7.58 ± 0.49
86 | TTTATAACATTTAAGAGTACAAAAAAATAAATAAAT [XGTACX_site1264] | 7.96 ± 0.53
87 | TAATTTATTACCATGTAATTATTACGAATATAGGAT [CACACA_negctrl_site694] | 7.76 ± 0.41
88 | AAAAAATTATTAATTTGTACATAAATAACCAAAAAA [XGTACX_site2488] | 7.64 ± 0.63
